This is an account of results in the supplement of paper PMC7826260.

The other results are listed elsewhere or left out. Cleavage of a single-stranded DNA pool by Rep nickase domains was read by sequencing for 1 h at 37 °C with 3 µM enzyme; only the middle of the 90-letter strands is printed. The score is log2 (uncut reads / reads without enzyme); uncut sequences lie near 0, cut ones below; no hit call is given. Counts are relative to all reads; values above 0 arise when much of the pool is cut.

The test system of this assay is T1, Rep nickase domain of tomato golden mosaic virus.
T1 sequence (residues 1-124 of Rep, tag left off): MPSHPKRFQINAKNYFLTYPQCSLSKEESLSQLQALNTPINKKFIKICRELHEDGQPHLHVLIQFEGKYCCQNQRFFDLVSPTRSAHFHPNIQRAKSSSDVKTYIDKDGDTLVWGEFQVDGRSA
In words: uncleaved DNA left, log2 of reads against the no-enzyme library (log2 ratio); higher = less cleavage (more negative = more Rep cleavage of the k-mer); sequences stand for … in CTCGTCCG…ACCGGAGA
The procedure:
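A pool of 90-nt single-stranded DNAs with seven random bases just before the constant AC of the nick site (name = the seven bases) was cut by 3 µM recombinant His6-SUMO-tagged Rep nickase domain (300 nM DNA, 50 mM HEPES pH 8.0, 50 mM NaCl, 1 mM MnCl2, 1 h, 37 °C, three replicates). Uncut DNA was amplified and sequenced.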
GAGCATC: the “uncleaved DNA left (log2)” value was -0.0552. The result for GTTCTAA reads 0.162; that for ATACATC, -0.00566; that for CCGGTCT, -0.0996.

On to GCCATTA, for which the “uncleaved DNA left (log2)” value came to 0.0534.

As for CCTTCTC, the “uncleaved DNA left (log2)” value is -0.242. The value for AACAGGC was 0.0398. On to GGATCCT, for which the “uncleaved DNA left (log2)” value is -0.0495.

On to GGAATCC, for which the “uncleaved DNA left (log2)” value was -0.0144. The value for ACACGCT was -0.00695. The value for TCGTGGT was -0.125; that for CTCCGAT was 0.000539. Turning to TAACCAT, the “uncleaved DNA left (log2)” value was -0.197. Regarding TTCCGAT, the “uncleaved DNA left (log2)” value was -0.14. For TCTATTC, the “uncleaved DNA left (log2)” value was -0.0624. Consider TACAGGC, for which the “uncleaved DNA left (log2)” value worked out at 0.0918. With AAATTTA, the “uncleaved DNA left (log2)” value is -0.196. The result for TCGTGAT reads 0.0745.

Turning to GTACGAC, the “uncleaved DNA left (log2)” value came out at 0.134. The value for ATTAGGC was 0.109.

For the sequence GCTTTCG, the “uncleaved DNA left (log2)” value is -0.256. The result for TGGCTGT reads -0.029; that for CCATGCA, -0.0856. The value for CAGAGTC was -0.0504; that for TGCTACG was -0.0888; that for ATTTAGC was 0.031. The value for TGGATAC was -0.0285.

In the case of GCGGCAA, the “uncleaved DNA left (log2)” value worked out at 0.084. The value for GTATCTG was 0.165; that for TGTTCCG was -0.22; that for TTAGCTC was 0.0129.

Consider TCAGCAG, for which the “uncleaved DNA left (log2)” value is -0.0707. The value for ACCGCCG was -0.0657. For CGTGCCA, the “uncleaved DNA left (log2)” value came to 0.019. The result for CGTTGTA reads 0.0428; that for CTGTTTG, -0.129; that for CGGCGCC, -0.0486.

For CGCCGAC, the “uncleaved DNA left (log2)” value is -0.0838. The value for AGCGCGG was 0.103; that for CACAGAA was -0.00494.
